The other results are listed elsewhere or left out.
What was measured:
[1] = tested on: HSkMC (human skeletal muscle cells); experiment: cytotoxicity call (relative viability < 0.9); details: 10 µM
[2] = tested on: HepG2; experiment: cytotoxicity call (relative viability < 0.9); details: 10 µM
[3] = tested on: S. aureus RN4220; experiment: growth inhibition call (relative growth <= 0.2); details: 50 µM

Cc1noc(C)c1S(=O)(=O)Nc1ccc2c(c1)C(=O)N([C@@H](C)CO)C[C@H](C)[C@@H](CN(C)C(=O)Nc1ccc(F)cc1)OCCCC[C@@H](C)O2
cytotoxicity call [1]: inactive
cytotoxicity call [2]: inactive
growth inhibition call [3]: inactive

C[C@H](CO)N1C[C@H](C)[C@@H](CN(C)Cc2ccc3c(c2)OCO3)Oc2ccc(NC(=O)Cn3cnnn3)cc2CC1=O
cytotoxicity call [1]: inactive
cytotoxicity call [2]: inactive
growth inhibition call [3]: inactive

COc1cccc(-c2cnc3c(c2)C(=O)N([C@H](C)CO)C[C@H](C)[C@H](CN(C)S(=O)(=O)c2ccccc2)O3)c1
cytotoxicity call [1]: inactive
cytotoxicity call [2]: active
growth inhibition call [3]: inactive

O=C(Cn1cnnn1)NC1C(=O)N2C(C(=O)O)=C(CSc3nncs3)CSC12 (stereo unspecified)
cytotoxicity call [1]: inactive
cytotoxicity call [2]: inactive
growth inhibition call [3]: active

COc1ccc(NC(=O)Nc2ccc3c(c2)C(=O)N([C@H](C)CO)C[C@@H](C)[C@H](CN(C)C(=O)Cc2ccccc2)OCCCC[C@@H](C)O3)cc1
cytotoxicity call [1]: inactive
cytotoxicity call [2]: inactive
growth inhibition call [3]: inactive

COc1ccc(NC(=O)N(C)C[C@@H]2OCCCC[C@@H](C)Oc3ccc(NC(=O)Nc4ccc5c(c4)OCO5)cc3C(=O)N([C@H](C)CO)C[C@H]2C)cc1
cytotoxicity call [1]: inactive
cytotoxicity call [2]: inactive
growth inhibition call [3]: inactive

C[C@@H]1CN([C@@H](C)CO)C(=O)c2cccc(NC(=O)C3CCOCC3)c2O[C@@H]1CN(C)Cc1ccc(C(=O)O)cc1
cytotoxicity call [1]: inactive
cytotoxicity call [2]: inactive
growth inhibition call [3]: inactive

CCc1ccc(CCOc2ccc(CC3SC(=O)NC3=O)cc2)nc1.Cl (stereo unspecified)
cytotoxicity call [1]: inactive
cytotoxicity call [2]: inactive
growth inhibition call [3]: inactive

COCC(=O)N1C[C@H](C)[C@@H](OC)CN(C)C(=O)c2ccc(NC(=O)c3ccc(OC)cc3)cc2OC[C@H]1C
cytotoxicity call [1]: inactive
cytotoxicity call [2]: inactive
growth inhibition call [3]: inactive

COc1ccc(NC(=O)Nc2ccc3c(c2)CC(=O)N([C@@H](C)CO)C[C@H](C)[C@@H](CN(C)CC2CCCCC2)O3)cc1
cytotoxicity call [1]: inactive
cytotoxicity call [2]: inactive
growth inhibition call [3]: inactive

C[C@H](CO)N1C[C@H](C)[C@@H](CN(C)C(=O)c2ccc3c(c2)OCO3)Oc2ncc(C#CCN(C)C)cc2C1=O
cytotoxicity call [1]: inactive
cytotoxicity call [2]: inactive
growth inhibition call [3]: inactive

C[C@H](CO)N1C[C@H](C)[C@@H](CN(C)C(=O)Nc2ccccc2)Oc2ccc(NC(=O)Nc3cccc4ccccc34)cc2C1=O
cytotoxicity call [1]: inactive
cytotoxicity call [2]: inactive
growth inhibition call [3]: inactive

COCC#Cc1ccc2c(c1)O[C@@H](CN(C)Cc1ccccc1F)[C@@H](C)CN([C@@H](C)CO)S2(=O)=O
cytotoxicity call [1]: inactive
cytotoxicity call [2]: inactive
growth inhibition call [3]: inactive

C[C@@H]1CN([C@@H](C)CO)C(=O)c2cc(NC(=O)Nc3cccc4ccccc34)ccc2O[C@H]1CN(C)C(=O)Nc1ccccc1
cytotoxicity call [1]: inactive
cytotoxicity call [2]: inactive
growth inhibition call [3]: inactive

COc1ccc(NC(=O)N(C)C[C@H]2OCCCC[C@H](C)Oc3ccc(NS(=O)(=O)c4ccccc4)cc3C(=O)N([C@@H](C)CO)C[C@H]2C)cc1
cytotoxicity call [1]: inactive
cytotoxicity call [2]: inactive
growth inhibition call [3]: inactive

CC(C)NC(=O)N(C)C[C@H]1Oc2ccc(NC(=O)Cn3cnnn3)cc2C(=O)N([C@H](C)CO)C[C@@H]1C
cytotoxicity call [1]: inactive
cytotoxicity call [2]: inactive
growth inhibition call [3]: inactive

C[C@@H]1CCCCO[C@H](CN(C)S(=O)(=O)c2cccs2)[C@H](C)CN([C@H](C)CO)C(=O)c2cc(NC(=O)Cc3ccccc3)ccc2O1
cytotoxicity call [1]: inactive
cytotoxicity call [2]: inactive
growth inhibition call [3]: inactive

C[C@@H]1CN([C@H](C)CO)C(=O)c2cc(NC(=O)C3CC3)ccc2O[C@@H]1CN(C)Cc1ccc(-c2ccccc2)cc1
cytotoxicity call [1]: inactive
cytotoxicity call [2]: inactive
growth inhibition call [3]: inactive

O=C(O)CCCCCCCCCCCC[C@@H]1C=CCC1
cytotoxicity call [1]: inactive
cytotoxicity call [2]: inactive
growth inhibition call [3]: inactive

COC(=O)C1C2CC3c4[nH]c5cc(OC)ccc5c4CCN3CC2CC(OC(=O)c2cc(OC)c(OC)c(OC)c2)C1OC (stereo unspecified)
cytotoxicity call [1]: inactive
cytotoxicity call [2]: active
growth inhibition call [3]: inactive

COc1ccc(S(=O)(=O)Nc2cccc3c2O[C@@H](CN(C)S(C)(=O)=O)[C@@H](C)CN([C@H](C)CO)C3=O)cc1
cytotoxicity call [1]: inactive
cytotoxicity call [2]: inactive
growth inhibition call [3]: inactive

C[C@@H]1CN([C@H](C)CO)C(=O)c2cccc(NC(=O)c3cnccn3)c2O[C@H]1CN(C)C(=O)Nc1ccccc1
cytotoxicity call [1]: inactive
cytotoxicity call [2]: inactive
growth inhibition call [3]: inactive

COCC(=O)N1[C@H](C(=O)N2CCN(C)CC2)[C@@H](CO)[C@@H]2Cn3c(ccc(C4=CCCC4)c3=O)[C@@H]21
cytotoxicity call [1]: inactive
cytotoxicity call [2]: inactive
growth inhibition call [3]: inactive

C=CCC[C@H](Cc1ccc(F)cc1)C(=O)OC[C@@H](Cc1c[nH]c2ccccc12)NC(=O)[C@@H](CC=C)CC(=O)N(CCO)Cc1ccccc1
cytotoxicity call [1]: inactive
cytotoxicity call [2]: active
growth inhibition call [3]: inactive

CC(C)NC(=O)Nc1ccc2c(c1)C(=O)N([C@@H](C)CO)C[C@H](C)[C@@H](CN(C)Cc1ccc(C(F)(F)F)cc1)OCCCC[C@H](C)O2
cytotoxicity call [1]: inactive
cytotoxicity call [2]: active
growth inhibition call [3]: inactive

OCc1cccc(Cn2cncn2)c1
cytotoxicity call [1]: inactive
cytotoxicity call [2]: inactive
growth inhibition call [3]: inactive

O=C(C[C@@H]1CC[C@@H]2[C@H](COC[C@H](O)CN2C(=O)Nc2ccc3c(c2)OCO3)O1)N1CCN(c2ccccc2)CC1
cytotoxicity call [1]: inactive
cytotoxicity call [2]: inactive
growth inhibition call [3]: inactive

C[C@H]1CN([C@@H](C)CO)S(=O)(=O)c2ccc(-c3cncnc3)cc2O[C@@H]1CN(C)C(=O)Cc1cccnc1
cytotoxicity call [1]: inactive
cytotoxicity call [2]: inactive
growth inhibition call [3]: inactive

O=C(Cc1ccncc1)Nc1ccc2c(c1)[C@H]1C[C@H](CC(=O)N3CCc4ccccc4C3)O[C@H](CO)[C@H]1O2
cytotoxicity call [1]: inactive
cytotoxicity call [2]: inactive
growth inhibition call [3]: inactive

O=C(CCCCCC(=O)N/N=C/[C@H](O)[C@@H](O)[C@@H](O)[C@H](O)C(=O)O)NO
cytotoxicity call [1]: inactive
cytotoxicity call [2]: inactive
growth inhibition call [3]: inactive

CC(C)C#Cc1ccc2c(c1)O[C@H](CN(C)S(=O)(=O)c1cn(C)cn1)[C@H](C)CN([C@H](C)CO)S2(=O)=O
cytotoxicity call [1]: inactive
cytotoxicity call [2]: inactive
growth inhibition call [3]: inactive

COc1ccc(CCNC(=O)[C@@]2(Cc3ccccc3I)c3ccccc3C(=O)N(Cc3ccccc3)[C@H]2c2ccc(COC(=O)NCCCCCC(=O)NO)cc2)cc1
cytotoxicity call [1]: inactive
cytotoxicity call [2]: inactive
growth inhibition call [3]: inactive

Cn1cnc(S(=O)(=O)N2C[C@@H](O)COC[C@@H]3O[C@H](CC(=O)NC4CCC4)CC[C@H]32)c1
cytotoxicity call [1]: inactive
cytotoxicity call [2]: inactive
growth inhibition call [3]: inactive

Cn1cnc(S(=O)(=O)N[C@H]2C=C[C@H](CC(=O)N3CCN(c4ccccc4)CC3)O[C@H]2CO)c1
cytotoxicity call [1]: inactive
cytotoxicity call [2]: inactive
growth inhibition call [3]: inactive

Cc1noc(C)c1S(=O)(=O)N(C)C[C@H]1Oc2ccc(N(C)C)cc2CC(=O)N([C@@H](C)CO)C[C@@H]1C
cytotoxicity call [1]: inactive
cytotoxicity call [2]: inactive
growth inhibition call [3]: inactive

COc1ccc(NC(=O)Nc2ccc3c(c2)C(=O)N([C@@H](C)CO)C[C@H](C)[C@H](CN(C)Cc2ccc(C(F)(F)F)cc2)OCCCC[C@H](C)O3)cc1
cytotoxicity call [1]: inactive
cytotoxicity call [2]: active
growth inhibition call [3]: inactive

COc1ccc(S(=O)(=O)N(C)C[C@@H]2OCCCC[C@@H](C)Oc3ccc(NC(=O)NC4CCCCC4)cc3C(=O)N([C@@H](C)CO)C[C@H]2C)cc1
cytotoxicity call [1]: inactive
cytotoxicity call [2]: inactive
growth inhibition call [3]: inactive

Reference: the antibiotic and cytotoxicity screens of Wong et al. (2023)
